# Reference: the supplement of paper PMC11369174, “Proteome-scale characterisation of motif-based interactome rewiring by disease mutations” (Molecular Systems Biology, 2024)
# The other results are listed elsewhere or left out. Single values of this set are uncertain.
# T1: GEF_Sec7__Q9Y6D5_639_829
# T1 chain: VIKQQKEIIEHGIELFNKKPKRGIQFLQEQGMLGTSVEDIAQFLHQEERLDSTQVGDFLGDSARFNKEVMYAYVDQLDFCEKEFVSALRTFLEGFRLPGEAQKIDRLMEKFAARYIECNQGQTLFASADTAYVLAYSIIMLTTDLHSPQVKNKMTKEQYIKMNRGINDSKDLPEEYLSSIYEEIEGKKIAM
# T2: GGA3_VHS__Q9NZ52_1_166
# T2 chain: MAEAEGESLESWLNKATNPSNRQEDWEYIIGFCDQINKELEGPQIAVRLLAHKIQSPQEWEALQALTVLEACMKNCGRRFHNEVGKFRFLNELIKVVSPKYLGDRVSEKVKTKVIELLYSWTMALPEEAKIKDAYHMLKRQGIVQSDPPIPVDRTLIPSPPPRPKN
# T3: SPOP_MATH__O43791_19_176
# T3 chain: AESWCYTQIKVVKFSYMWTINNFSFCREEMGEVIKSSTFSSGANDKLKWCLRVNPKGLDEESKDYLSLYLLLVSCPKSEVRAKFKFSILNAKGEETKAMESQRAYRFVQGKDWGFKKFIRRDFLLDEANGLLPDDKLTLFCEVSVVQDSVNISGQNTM
# T4: RDX_FERM_1_P35241_5_295
# T4 chain: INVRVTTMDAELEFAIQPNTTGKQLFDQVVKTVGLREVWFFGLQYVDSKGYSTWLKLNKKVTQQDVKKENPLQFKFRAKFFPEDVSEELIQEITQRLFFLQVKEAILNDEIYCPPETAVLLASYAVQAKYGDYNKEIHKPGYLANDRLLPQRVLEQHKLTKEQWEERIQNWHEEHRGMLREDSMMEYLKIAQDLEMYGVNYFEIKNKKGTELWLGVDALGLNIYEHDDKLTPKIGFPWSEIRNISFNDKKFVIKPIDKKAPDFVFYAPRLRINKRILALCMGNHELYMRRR
# Target: T1, GEF_Sec7__Q9Y6D5_639_829
# Experiment: mutation enrichment score (mutant vs wild-type peptide binding to bait); baits are purified protein domains named by gene / domain / UniProt id / residues; peptides come from disordered regions of human proteins; higher = mutation enhances binding relative to wild type
# Details: number of wild-type / mutant comparisons summed (bounds the score): 6; paper call: enhanced; wild-type window: …
row,Binder,mutation enrichment score
1,ARQQVHVELDVAKPDLTAALTEIRTQYEAMASSNMHEAEEW [K236T K236T],6

# Target: WDR5_WD_1234567_P61964_21_334
# Experiment: as above
# Details: number of wild-type / mutant comparisons summed (bounds the score): 6; paper call: no_effect; wild-type window: …
row,Binder,mutation enrichment score
1,ARQQVHVELDVAKPDLTAALTEIRTQYEAMASSNMHEAEEW [K236T K236T],1

# Target: GABARAPL2_ATG8__P60520_2_115
# Experiment: as above
# Details: number of wild-type / mutant comparisons summed (bounds the score): 6; paper call: no_effect; wild-type window: …
# Sequence of GABARAPL2_ATG8__P60520_2_115 (chain, as listed by the source): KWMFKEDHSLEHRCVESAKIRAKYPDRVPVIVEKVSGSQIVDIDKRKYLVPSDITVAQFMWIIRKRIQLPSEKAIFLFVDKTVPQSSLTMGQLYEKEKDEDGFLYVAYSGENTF
row,Binder,mutation enrichment score
1,QEYKILLDVKTRLEQEIATYPRLLEGEDAHLSSSQFSSGSQ [R416P R416P],3
2,MNMFQAPTLPDISDDKDEWQYLDQNEDAFEAQFQKNVRSSG [S492Y S492Y],1
3,KIASDCQLPRWHMNDFFHSFPIVFRVLCGEWIETMWDCMEV [L942P L942P],2
4,GEGLFEYDLLPFLSSTISPYDRQSLFRTVLDSGISEVRSDR [Y48D Y48D],-3
5,GEGLFEYDLLPFLSSTISPYHRQSLFRTVLDSGISEVRSDR [Y48H Y48H],-3

# Target: MAP1LC3A_ATG8__Q9H492_2_121
# Experiment: as above
# Details: number of wild-type / mutant comparisons summed (bounds the score): 6; paper call: no_effect; wild-type window: …
row,Binder,mutation enrichment score
1,QEYKILLDVKTRLEQEIATYPRLLEGEDAHLSSSQFSSGSQ [R416P R416P],4

# Target: GABARAPL1_ATG8__Q9H0R8_2_115
# Experiment: as above
# Details: number of wild-type / mutant comparisons summed (bounds the score): 18; paper call: enhanced; wild-type window: …
row,Binder,mutation enrichment score
1,MNMFQAPTLPDISDDKDEWQFLDQNEDAFEAQFQKNVRSSG [S492F S492F],16

# Target: GABARAPL2_ATG8__P60520_2_115
# Experiment: as above
# Details: number of wild-type / mutant comparisons summed (bounds the score): 12; paper call: enhanced; wild-type window: …
row,Binder,mutation enrichment score
1,MNMFQAPTLPDISDDKDEWQFLDQNEDAFEAQFQKNVRSSG [S492F S492F],6
2,SDNCSGGDDDWTHLSSKEVDLSTGELQSLQMPESEGPSSLD [P348L P348L],7.7
3,QSRSSLNAKPHDSLDLNCDSWDFVAAIISIPTPPANTPDES [R592W R592W],8

# Target: GABARAP_ATG8__O95166_2_115
# Experiment: as above
# Details: number of wild-type / mutant comparisons summed (bounds the score): 18; paper call: no_effect; wild-type window: …
# Sequence of GABARAP_ATG8__O95166_2_115 (chain, as listed by the source): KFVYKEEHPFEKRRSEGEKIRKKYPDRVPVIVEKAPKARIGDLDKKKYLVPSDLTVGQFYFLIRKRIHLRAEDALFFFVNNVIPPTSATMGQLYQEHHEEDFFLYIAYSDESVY
row,Binder,mutation enrichment score
1,MNMFQAPTLPDISDDKDEWQFLDQNEDAFEAQFQKNVRSSG [S492F S492F],4

# Target: MAP1LC3A_ATG8__Q9H492_2_121
# Experiment: as above
# Details: number of wild-type / mutant comparisons summed (bounds the score): 18; paper call: enhanced; wild-type window: …
row,Binder,mutation enrichment score
1,MNMFQAPTLPDISDDKDEWQFLDQNEDAFEAQFQKNVRSSG [S492F S492F],5

# Target: MAP1LC3B_ATG8__Q9GZQ8_2_119
# Experiment: as above
# Details: number of wild-type / mutant comparisons summed (bounds the score): 18; paper call: enhanced; wild-type window: …
row,Binder,mutation enrichment score
1,MNMFQAPTLPDISDDKDEWQFLDQNEDAFEAQFQKNVRSSG [S492F S492F],12

# Same assay, conditions: number of wild-type / mutant comparisons summed (bounds the score): 6; paper call: no_effect; wild-type window: …
row,Binder,mutation enrichment score
1,MNMFQAPTLPDISDDKDEWQYLDQNEDAFEAQFQKNVRSSG [S492Y S492Y],4

# Target: T1, GEF_Sec7__Q9Y6D5_639_829
# Experiment: as above
# Details: number of wild-type / mutant comparisons summed (bounds the score): 6; paper call: no_effect; wild-type window: …
row,Binder,mutation enrichment score
1,ESKLTSQSRENTMLRAKVAQIQTDYDALKRQISTERYERER [L1089I L1089I],-2

# Target: GABARAPL1_ATG8__Q9H0R8_2_115
# Experiment: as above
# Details: number of wild-type / mutant comparisons summed (bounds the score): 12; paper call: no_effect; wild-type window: …
row,Binder,mutation enrichment score
1,LFGPKNDLEDYDADSDFEVLTKTAHGHLVPDRVDKDKEATK [M1347T M1347T],-3
2,SWGEPKDGGGTEITNYIVEKHESGTTAWQLVNSSVKRTQIK [R29708H R29708H],-3.7

# Target: MAP1LC3A_ATG8__Q9H492_2_121
# Experiment: as above
# Details: number of wild-type / mutant comparisons summed (bounds the score): 12; paper call: diminished; wild-type window: …
row,Binder,mutation enrichment score
1,LFGPKNDLEDYDADSDFEVLTKTAHGHLVPDRVDKDKEATK [M1347T M1347T],-6
2,LFGPKNDLEDYDADSDFEVLRKTAHGHLVPDRVDKDKEATK [M1347R M1347R],-6

# Target: MAP1LC3B_ATG8__Q9GZQ8_2_119
# Experiment: as above
# Details: number of wild-type / mutant comparisons summed (bounds the score): 12; paper call: diminished; wild-type window: …
row,Binder,mutation enrichment score
1,LFGPKNDLEDYDADSDFEVLTKTAHGHLVPDRVDKDKEATK [M1347T M1347T],-9

# Target: GABARAPL1_ATG8__Q9H0R8_2_115
# Experiment: as above
# Details: number of wild-type / mutant comparisons summed (bounds the score): 18; paper call: no_effect; wild-type window: …
row,Binder,mutation enrichment score
1,LFGPKNDLEDYDADSDFEVLRKTAHGHLVPDRVDKDKEATK [M1347R M1347R],-3

# Target: MAP1LC3B_ATG8__Q9GZQ8_2_119
# Experiment: as above
# Details: number of wild-type / mutant comparisons summed (bounds the score): 18; paper call: diminished; wild-type window: …
row,Binder,mutation enrichment score
1,LFGPKNDLEDYDADSDFEVLRKTAHGHLVPDRVDKDKEATK [M1347R M1347R],-8.9

# Target: GABARAPL2_ATG8__P60520_2_115
# Experiment: as above
# Details: number of wild-type / mutant comparisons summed (bounds the score): 12; paper call: no_effect; wild-type window: …
row,Binder,mutation enrichment score
1,SWGEPKDGGGTEITNYIVEKHESGTTAWQLVNSSVKRTQIK [R29708H R29708H],-0.31

# Target: GABARAP_ATG8__O95166_2_115
# Experiment: as above
# Details: number of wild-type / mutant comparisons summed (bounds the score): 12; paper call: no_effect; wild-type window: …
row,Binder,mutation enrichment score
1,SWGEPKDGGGTEITNYIVEKHESGTTAWQLVNSSVKRTQIK [R29708H R29708H],-1.5

# Target: T2, GGA3_VHS__Q9NZ52_1_166
# Experiment: as above
# Details: number of wild-type / mutant comparisons summed (bounds the score): 12; paper call: no_effect; wild-type window: …
row,Binder,mutation enrichment score
1,SWGEPKDGGGTEITNYIVEKHESGTTAWQLVNSSVKRTQIK [R29708H R29708H],-2

# Target: T3, SPOP_MATH__O43791_19_176
# Experiment: as above
# Details: number of wild-type / mutant comparisons summed (bounds the score): 6; paper call: no_effect; wild-type window: …
row,Binder,mutation enrichment score
1,SWGEPKDGGGTEITNYIVEKHESGTTAWQLVNSSVKRTQIK [R29708H R29708H],-2.6

# Target: USP7_MATH-TRAF__Q93009_53_206
# Experiment: as above
# Details: number of wild-type / mutant comparisons summed (bounds the score): 10; paper call: no_effect; wild-type window: …
# Sequence of USP7_MATH-TRAF__Q93009_53_206 (chain, as listed by the source): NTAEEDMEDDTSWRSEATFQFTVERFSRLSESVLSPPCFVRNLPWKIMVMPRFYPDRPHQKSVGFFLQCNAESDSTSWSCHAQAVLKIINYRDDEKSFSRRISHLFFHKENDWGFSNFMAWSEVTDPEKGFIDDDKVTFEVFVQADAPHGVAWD
row,Binder,mutation enrichment score
1,SWGEPKDGGGTEITNYIVEKHESGTTAWQLVNSSVKRTQIK [R29708H R29708H],-3

# Target: GABARAPL1_ATG8__Q9H0R8_2_115
# Experiment: as above
# Details: number of wild-type / mutant comparisons summed (bounds the score): 12; paper call: enhanced; wild-type window: …
row,Binder,mutation enrichment score
1,LFLRRRAVVKEPLLPPEDDTWDNVYYYDEEGGGEEDQDFDL [R749W R749W],7
2,SDNCSGGDDDWTHLSSKEVDLSTGELQSLQMPESEGPSSLD [P348L P348L],10
3,QSRSSLNAKPHDSLDLNCDSWDFVAAIISIPTPPANTPDES [R592W R592W],11

# Target: MAP1LC3A_ATG8__Q9H492_2_121
# Experiment: as above
# Details: number of wild-type / mutant comparisons summed (bounds the score): 12; paper call: enhanced; wild-type window: …
row,Binder,mutation enrichment score
1,LFLRRRAVVKEPLLPPEDDTWDNVYYYDEEGGGEEDQDFDL [R749W R749W],6
2,SDNCSGGDDDWTHLSSKEVDLSTGELQSLQMPESEGPSSLD [P348L P348L],7.8
3,QSRSSLNAKPHDSLDLNCDSWDFVAAIISIPTPPANTPDES [R592W R592W],9

# Target: MAP1LC3B_ATG8__Q9GZQ8_2_119
# Experiment: as above
# Details: number of wild-type / mutant comparisons summed (bounds the score): 12; paper call: enhanced; wild-type window: …
row,Binder,mutation enrichment score
1,LFLRRRAVVKEPLLPPEDDTWDNVYYYDEEGGGEEDQDFDL [R749W R749W],9
2,SDNCSGGDDDWTHLSSKEVDLSTGELQSLQMPESEGPSSLD [P348L P348L],7.6
3,QSRSSLNAKPHDSLDLNCDSWDFVAAIISIPTPPANTPDES [R592W R592W],8

# Target: GABARAP_ATG8__O95166_2_115
# Experiment: as above
# Details: number of wild-type / mutant comparisons summed (bounds the score): 12; paper call: enhanced; wild-type window: …
row,Binder,mutation enrichment score
1,SDNCSGGDDDWTHLSSKEVDLSTGELQSLQMPESEGPSSLD [P348L P348L],5.5
2,QSRSSLNAKPHDSLDLNCDSWDFVAAIISIPTPPANTPDES [R592W R592W],10

# Target: Keap1_KELCH__Q14145_321_609
# Experiment: as above
# Details: number of wild-type / mutant comparisons summed (bounds the score): 18; paper call: diminished; wild-type window: …
# Sequence of Keap1_KELCH__Q14145_321_609 (chain, as listed by the source): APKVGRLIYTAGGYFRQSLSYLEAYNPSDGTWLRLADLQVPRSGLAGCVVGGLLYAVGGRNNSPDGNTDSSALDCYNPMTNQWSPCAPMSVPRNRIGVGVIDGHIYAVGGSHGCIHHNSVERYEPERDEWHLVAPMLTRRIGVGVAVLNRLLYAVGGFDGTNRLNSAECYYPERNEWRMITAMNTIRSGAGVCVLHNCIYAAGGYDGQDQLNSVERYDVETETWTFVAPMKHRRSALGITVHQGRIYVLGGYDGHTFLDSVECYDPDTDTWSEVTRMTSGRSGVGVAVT
row,Binder,mutation enrichment score
1,SDNCSGGDDDWTHLSSKEVDLSTGELQSLQMPESEGPSSLD [P348L P348L],-16

# Target: T4, RDX_FERM_1_P35241_5_295
# Experiment: as above
# Details: number of wild-type / mutant comparisons summed (bounds the score): 6; paper call: no_effect; wild-type window: …
row,Binder,mutation enrichment score
1,GEGLFEYDLLPFLSSTISPYDRQSLFRTVLDSGISEVRSDR [Y48D Y48D],4
